# Assay results as given in the antibiotic and cytotoxicity screens of Wong et al. (2023).
# This is one part of the list.
# System: HSkMC (human skeletal muscle cells)
# Experiment: cytotoxicity call (relative viability < 0.9)
# Conditions: 10 µM
row,Structure (SMILES),cytotoxicity call
1,OCC(O)CN1CCN(c2ccccc2)CC1 (stereo not drawn),inactive
2,COc1ccc2c3c([nH]c2c1)[C@H](CO)N(C[C@]13CCN(CC1)C(=O)c1cnccn1)C(=O)c1cnccn1,inactive
3,C[C@H]1CN([C@@H](C)CO)C(=O)c2cccc(NC(=O)C3CCOCC3)c2O[C@@H]1CN(C)S(=O)(=O)c1cn(C)cn1,inactive
4,C[C@@H]1CN([C@H](C)CO)C(=O)c2cccc(NS(=O)(=O)c3ccc(F)cc3)c2O[C@H]1CN(C)Cc1ccc(-c2ccccc2)cc1,inactive
5,CCCNC(=O)[C@H]1[C@H](CO)[C@H]2Cn3c(ccc(-c4ccccc4OC)c3=O)[C@H]2N1S(C)(=O)=O,inactive
6,C[C@@H]1CCCCO[C@@H](CN(C)C(=O)Nc2cccc3ccccc23)[C@H](C)CN([C@@H](C)CO)C(=O)c2cc(NC(=O)c3ccccc3)ccc2O1,inactive
7,COc1ccccc1NC(=O)N(C)C[C@@H]1Oc2cc(Br)ccc2S(=O)(=O)N([C@H](C)CO)C[C@@H]1C,inactive
8,C[C@@H]1CN([C@@H](C)CO)C(=O)c2cccc(NC(=O)c3cnccn3)c2O[C@H]1CN(C)Cc1ccncc1,inactive
9,Cc1ccc(S(=O)(=O)Nc2ccc3c(c2)C(=O)N([C@H](C)CO)C[C@H](C)[C@@H](CN(C)C(=O)Nc2cccc4ccccc24)OCCCC[C@@H](C)O3)cc1,inactive
10,Cc1noc(C)c1NC(=O)Nc1ccc2c(c1)C(=O)N([C@@H](C)CO)C[C@@H](C)[C@H](CN(C)Cc1ccc(C(=O)O)cc1)OCCCC[C@H](C)O2,inactive
11,O=C(C[C@H]1CC[C@@H](NC(=O)C2CC2)[C@H](CO)O1)NCCCN1CCOCC1,inactive
12,C[C@H](CO)N1C[C@H](C)[C@H](CN(C)Cc2ccc(C(=O)O)cc2)Oc2c(NC(=O)C3CC3)cccc2C1=O,inactive
13,NCCn1nc([C@H]2CCN(C(=O)c3csc4c3CCCC4)C2)c2nccnc21,inactive
14,COC1=CC(=O)CC(C)C12Oc1c(Cl)c(OC)cc(OC)c1C2=O (stereo not drawn),inactive
15,C[C@@H]1CCCCO[C@@H](CN(C)Cc2ccncc2)[C@@H](C)CN([C@H](C)CO)C(=O)c2cc(NS(=O)(=O)c3ccc(Cl)cc3)ccc2O1,inactive
16,O=C(CCCCCNC(=O)OCc1ccc(CO[C@@H]2C[C@H](c3ccc(C(F)(F)F)cc3)C=C(C(=O)N3CCCCCCC3)O2)cc1)NO,inactive
17,O=C1O[C@H](c2ccccc2)[C@H](c2ccccc2)N2[C@H]1[C@@H](C(=O)N1CCN(c3ncccn3)CC1)[C@]1(C(=O)Nc3ccc(C#CC4=CCCCC4)cc31)[C@H]2c1ccc(O)cc1,inactive
18,O=C(NCCCN1CCOCC1)[C@H]1N[C@H]2c3ccc(C4=CCCCC4)c(=O)n3C[C@H]2[C@@H]1CO,inactive
